Test results: paper PMC4336329 (PLoS ONE, 2015)
Screen size: about 310,000 compounds; about 14,000 (4.5%) showed an effect of 50% or more. The effect is printed as a negative number. Some of the results follow.

Target: human ether-à-go-go-related gene (hERG) potassium channel (human, UniProt Q12809)
Experiment: primary screen, population patch clamp on CHO cells stably expressing hERG
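Further: peak tail current of the secondary pulse compared with the same well before compound.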

Chain of human ether-à-go-go-related gene (hERG) potassium channel (Q12809 whole entry, looked up): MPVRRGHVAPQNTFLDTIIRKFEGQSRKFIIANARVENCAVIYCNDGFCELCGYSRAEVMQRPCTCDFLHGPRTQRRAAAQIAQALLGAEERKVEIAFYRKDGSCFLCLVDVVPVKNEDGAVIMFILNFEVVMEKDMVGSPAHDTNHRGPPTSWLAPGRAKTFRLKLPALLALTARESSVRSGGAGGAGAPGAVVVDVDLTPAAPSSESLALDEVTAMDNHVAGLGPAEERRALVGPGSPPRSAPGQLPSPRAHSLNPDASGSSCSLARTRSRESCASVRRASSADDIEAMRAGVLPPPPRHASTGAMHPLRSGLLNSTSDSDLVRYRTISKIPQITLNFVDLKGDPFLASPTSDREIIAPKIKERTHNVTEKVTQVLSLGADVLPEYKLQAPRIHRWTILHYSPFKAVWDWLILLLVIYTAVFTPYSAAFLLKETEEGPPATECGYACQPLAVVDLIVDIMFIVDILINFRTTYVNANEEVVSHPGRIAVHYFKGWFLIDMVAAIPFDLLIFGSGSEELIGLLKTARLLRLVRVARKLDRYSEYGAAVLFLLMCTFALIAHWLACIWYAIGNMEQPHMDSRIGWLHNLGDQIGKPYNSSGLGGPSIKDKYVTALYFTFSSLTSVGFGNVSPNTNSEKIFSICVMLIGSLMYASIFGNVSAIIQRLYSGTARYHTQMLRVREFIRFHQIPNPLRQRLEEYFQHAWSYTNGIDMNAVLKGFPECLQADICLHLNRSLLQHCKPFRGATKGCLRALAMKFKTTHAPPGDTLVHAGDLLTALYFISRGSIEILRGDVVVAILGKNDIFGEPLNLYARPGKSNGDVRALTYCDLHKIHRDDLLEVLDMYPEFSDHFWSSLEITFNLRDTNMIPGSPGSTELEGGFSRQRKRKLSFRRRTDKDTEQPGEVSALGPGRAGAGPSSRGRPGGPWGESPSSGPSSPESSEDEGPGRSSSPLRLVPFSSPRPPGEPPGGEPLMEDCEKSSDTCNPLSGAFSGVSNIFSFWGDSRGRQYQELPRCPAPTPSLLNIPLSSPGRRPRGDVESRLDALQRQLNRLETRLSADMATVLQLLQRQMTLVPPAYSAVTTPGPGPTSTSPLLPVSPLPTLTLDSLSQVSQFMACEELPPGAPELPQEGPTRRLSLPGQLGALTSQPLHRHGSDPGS

Row | SMILES | hERG current change (%, negative = inhibition) at 10uM
1 | Cc1c(Br)c([N+](=O)[O-])nn1C(C)C(=O)NCc1ccco1 (stereo not shown) | -2.31%
2 | O=C(O)/C=C/C(=O)Nc1cccnc1 | 8.86%
3 | CCOc1c(Cl)cc(/C=N/NC(N)=S)cc1OC | 6.36%
4 | Cc1nonc1NCn1nnc2ccccc21 | 11.5%
5 | COc1cc2c(cc1OC)CN(CC(=O)Nc1ccc(F)cc1)CC2 | -7.62%
6 | CCOc1ccccc1NC(=O)c1ccoc1C | 15.5%
7 | CC(=O)Nc1ccc(S(C)(=O)=O)c(C)c1 | 3.53%
8 | CC(C)C[C@H](NC(=O)NC(C)C)C(=O)O | 3.08%
9 | Cc1ccccc1CN1C(=O)c2ccccc2Sc2ccc(C(=O)NCCN3CCOCC3)cc21 | -69.6%
10 | COc1ccc(CN(CC(=O)NCc2ccccc2)C(=O)CCC(=O)Nc2nccs2)cc1 | -1.67%
11 | CCOCCOc1nc(C)cc(C)c1S(=O)(=O)c1ccccc1C | -4.15%
12 | CC(C)(C)OC(=O)NCCCCc1cn(CC(=O)N2CCN(C(=O)OC(C)(C)C)CC2)nn1 | 26.3%
13 | CCOC(=O)NCc1ccc(S(=O)(=O)Nc2c(C)cccc2C)cc1 | -4.3%
14 | CCN(C(=O)COC(=O)CNC(=O)c1ccccc1C)C1=CCCCC1 | -10%
15 | Cc1cc(NC(=S)NC(=O)c2ccco2)c2ccccc2n1 | -1.51%
16 | CC(C)CCNC(=O)C1CCCN(S(=O)(=O)c2ccc3c(c2)CC(C)N3C(=O)C2CC2)C1 (stereo not shown) | -7.5%
17 | Cl.OC(CNC1CCCC1)COc1ccc(F)cc1 (stereo not shown) | 5.27%
18 | Cc1onc(C(=O)NCc2ccccn2)c1[N+](=O)[O-] | -0.19%
19 | Cc1nn(CCN)c(C)c1Cl.Cl | 14.4%
20 | O=C(O)CCC(=O)N1CCN(Cc2ccc3c(c2)OCO3)CC1 | 11.6%
21 | Cc1ccc(NC(=O)CSc2nnc(C)c(=O)n2N)cc1 | 6.33%
22 | COc1ccc(C(=O)NCc2ccc(-n3cccc3)cc2)cc1OC | -2.73%
23 | O=C(CCCn1c(=S)[nH]c2ccc(Br)cc2c1=O)N1CCN(c2ccccn2)CC1 | -5.36%

Row | SMILES | hERG current change (%, negative = inhibition) at 10uM
24 | CC1CN(C(=O)COC(=O)c2cc(Cl)ccc2Cl)CC(C)O1 (stereo not shown) | 2.74%
25 | COc1ccc(-n2cnc3scc(-c4ccccc4)c3c2=O)cc1 | -1.83%
26 | CC(C)OP(=O)(Nc1cccc2ccccc12)OC(C)C | 9.36%
27 | CC(C)(C)c1nc2scc(-c3cccs3)c2c(=O)o1 | 2.24%
28 | COc1ccc(S(=O)(=O)N2CCCOC2CNC(=O)C(=O)NCCCN2CCOCC2)cc1 (stereo not shown) | 16.4%
29 | Cc1ccc(-c2csc(NC(=O)c3cccc([N+](=O)[O-])c3)n2)cc1 | 1.35%
30 | COC(=O)CSC(C(=O)Nc1ccc(C)c(C)c1)c1ccccc1 (stereo not shown) | -24.8%
31 | CN(CC(=O)Nc1c(Cl)cccc1Cl)C(=O)Cc1ccc2c(c1)CCC2 | 15.9%
32 | CC(=O)C1C(c2ccc(F)cc2)c2c(noc2C)CC1(C)O (stereo not shown) | 12.5%
33 | Cc1ccc(S(=O)(=O)NCCc2ccc(S(N)(=O)=O)cc2)cc1 | -9.19%
34 | CSc1ccccc1OCc1cc(C(=O)N(C)Cc2cc(C)[nH]n2)no1 | -14.8%
35 | CC(=O)Nc1ccc(NC(=O)/C=C/c2cccc(C(F)(F)F)c2)cc1 | -1.91%
36 | CC1CCN(Cc2cnc(Cl)s2)CC1 | 4.56%
37 | CC(=O)NCc1ccc(-c2csc(N)n2)s1 | 10.4%
38 | C/C(=N\Nc1cccc(Cl)c1)C1(C)N(O)C(C)(C)C(c2ccco2)=[N+]1[O-] (stereo not shown) | 3.88%
39 | CC(C)NC(=O)NC(=O)COC(=O)c1cc(S(=O)(=O)N2CCCCC2)ccc1N1CCOCC1 | -1.77%
40 | Cc1ccc(NS(=O)(=O)c2cc3c(cc2C)NC(=O)CO3)cc1 | -21%
41 | Cc1ccc(C(=O)OCC(=O)NCC2CCCO2)c(C)c1 (stereo not shown) | 9.22%
42 | O=C(Nc1nc(-c2ccc(F)c(F)c2)cs1)C1=COCCO1 | -1.64%
43 | CC1CC(C)CN(CCCNC(=O)CN2C(=O)CSc3ccc(S(=O)(=O)N4CCCCC4)cc32)C1 (stereo not shown) | -50.2%
44 | COc1cc(NC(=O)c2ccc3c(SCC(=O)O)c4c(nc3c2)CCCC4)cc(OC)c1OC | 12.3%
45 | Cc1ccc(NC(=O)CN2C(=O)N/C(=C/c3ccco3)C2=O)cc1 | 0.551%
46 | CC(=O)Nc1ccc(S(=O)(=O)N2CCN(c3ccc([N+](=O)[O-])cc3)CC2)cc1 | -28.9%

Row | SMILES | hERG current change (%, negative = inhibition) at 10uM
47 | O=C1COc2ccc(S(=O)(=O)Nc3cccc(Cl)c3)cc2N1 | -2.4%
48 | Cc1ccc(C(C)C)c(OCC(=O)N/N=C/c2ccc(S(=O)(=O)[O-])o2)c1 | 12.1%
49 | CS(=O)(=O)N1CCC(C(=O)Nc2ccc(Cl)cc2)CC1 | 3.58%
50 | CCCOc1ccc(-c2c(C(=O)N/N=C/c3ccncc3)nnn2-c2nonc2N)cc1 | 15.1%
51 | COc1ccc(NC(=O)CSc2nc(C(C)C)nc3c2c(=O)n(C)c(=O)n3C)c(OC)c1 | 23.5%
52 | Oc1c(C(c2ccccc2Cl)N2CCCC2)ccc2cccnc12 (stereo not shown) | 5.2%
53 | COCCn1c(C)cc(C(=O)COc2nc3ccccc3nc2C)c1C | -0.0779%
54 | COCCNC(=O)C1c2cc(OC)c(OC)cc2C(=O)N(C)C1c1cccnc1 (stereo not shown) | 9.12%
55 | CCCCn1c(CCC(=O)O)nc2c1c(=O)[nH]c(=O)n2CCC | -38.7%
56 | CSc1nnc(CNS(=O)(=O)c2ccc(Br)cc2)n1C | 5.86%
57 | CN1CCN(C(=S)Nc2ccc(Cl)c(Cl)c2)CC1 | -29.5%
58 | CC[N+](CC)(CC)CCCCCCCCCC[N+](CC)(CC)CC.[Br-] | 5.32%
59 | CCOC(=O)C1CCN(C(=O)CN(c2ccc(OC)cc2)S(=O)(=O)c2c(C)nn(C)c2C)CC1 | -2.41%
60 | Cc1c(Cc2ccccc2)sc(NC(=O)Cc2ccccc2)c1C(N)=O | 12.8%
61 | CC(C)c1cc(C(=O)NC2CCCc3c2cnn3-c2ccccc2F)no1 (stereo not shown) | 2.9%
62 | COC(=O)c1cc(Br)c(=O)n(CCC2=CCCCC2)c1 | -7.34%
63 | CC(C)(C)NC(=O)c1ccc2c(c1)N(CC(=O)NC1CCCC1)C(=O)C(C)(C)O2 | 8.72%
64 | Cc1ccc(S(=O)(=O)CC(c2ccccc2)N2CCOCC2)cc1 (stereo not shown) | 3.15%
65 | CCCN(C(=O)c1cc(CC)c(C)s1)c1c(N)n(Cc2ccccc2)c(=O)[nH]c1=O | 3.38%
66 | CC(Oc1ccc(Cl)cc1Cl)C(=O)Nc1cccnc1 (stereo not shown) | 9.22%
67 | CCc1ccc(NC(=O)C/C(C)=N/NC(=O)COc2ccc(C)cc2Br)cc1 | -30.5%
68 | CN1CCN(CC(O)COC(c2ccc(Cl)cc2)c2ccc(Cl)cc2)CC1.Cl (stereo not shown) | -69.3%
69 | CCOC(=O)N1CCN(C(=O)c2cccc(-n3c(=S)[nH]c4cc(Cl)ccc4c3=O)c2)CC1 | 2.3%

Row | SMILES | hERG current change (%, negative = inhibition) at 10uM
70 | Cc1cccc(-n2c(-c3csc(C)c3C)n[nH]c2=S)c1 | 20.8%
71 | COc1ccc(NC(=O)COC(=O)CNC(=O)c2cccs2)cc1Cl | 3.29%
72 | CN1CCN(S(=O)(=O)c2ccc(N(C)CC(=O)Nc3ccc(F)cc3)nc2)CC1 | -4.31%
73 | CN1C(=O)C(CC(=O)O)S/C1=N\N=C\c1ccc(O)cc1O (stereo not shown) | 6.03%
74 | O=C(NC1CC1)c1cc2cc3ccccc3nc2s1 | -3.76%
75 | O=C(Nc1ccc(Cl)cc1)c1ccncc1 | 7.62%
76 | Cc1cccc(C(=O)NC(=S)NNC(=O)c2cccs2)c1 | 17.2%
77 | CCCN(CCC)S(=O)(=O)c1ccc(C(=O)N2CCCc3ccccc32)cc1 | -14.3%
78 | CCOc1cc(C(=O)OCC(=O)Nc2cc(C)on2)cc(OCC)c1OCC | 2.29%
79 | O=C(Nc1ccccc1)N1CCC(c2nc(-c3ccc(S(=O)(=O)N4CCOCC4)cc3)no2)CC1 | -4.94%
80 | CCn1c(=O)c(=O)[nH]c2cc(C(=O)N(C)Cc3ccc(OC)c(F)c3)ccc21 | 10.4%
81 | OC(CN1CCN(c2ccccc2F)CC1)c1ccc(F)cc1 (stereo not shown) | -19.3%
82 | Cl.OC(c1ccccc1)(c1ccccc1)C1CN2CCC1CC2 (stereo not shown) | -45.2%
83 | CN(C)/C=N/c1ncc(C(=O)c2ccc3ccccc3c2)s1 | -36.3%
84 | Cc1cc(/C=C(/C#N)c2nc3ccccc3[nH]2)c(C)n1-c1cccc([N+](=O)[O-])c1 | 17.8%
85 | Cc1cccc(OCCCCCNCCO)c1 | 3.93%
86 | CCOC(=O)Nc1nn(-c2ccc(C)cc2)c(=O)c(C#N)c1C | -18.7%
87 | Cc1ccccc1Nc1nc(N)nc(CSc2nc3ccccc3c(=O)n2C)n1 | 10%
88 | O=C(NNC(=O)c1ccccc1[N+](=O)[O-])c1ccccn1 | 4.6%
89 | CC1(C)CN(c2ccccc2)N(Cc2ccc(F)cc2)C1=O | -12.7%
90 | CCc1cc(C(=O)COc2ccc(F)cc2)c(O)cc1O | 2.44%
91 | COc1ccc(CNC(=O)C2=CC(c3ccc(OC)cc3)=NS(=O)(=O)N2C)cc1 | -54.5%
